“And” between values parts separate entries of the source, which are not always exact repeats. Identical values can stand only once. Among all 420,000 compounds or so, about 64,000 (15%) were called active. Inconclusive results, whose numbers are uncertain, are shown with a selection of clear calls. The call rests on the fitted dose curve; in most records, active means well fitted inhibition curve with a large enough effect; inconclusive means small, poorly fitted or top-dose-only effect; inactive means flat fitted curve, though single readings scatter. Potencies beside an inconclusive call are fits to weak or partial responses and may not hold up.
Assay: qHTS for Inhibitors of human tyrosyl-DNA phosphodiesterase 1 (TDP1): qHTS in cells in absence of CPT; further: nearly all actives have a fitted effect of over 55% in size
Conditions: DT40 Tdp1-/- hTDP1 cells, no CPT, ATP luminescence, 48 h; activity change, negative = growth inhibition: at 46.2 µM (top of the series)
Summary of the method: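 Readout: luminescence from CellTiter-Glo after 30 min in the dark at RT. Cells: DT40 Tdp1-/- with stable hTDP1, 400/well. Exposure: compounds alone, ≥48 hr, 37 °C.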
On the % scale 0 is the no-effect control and ±100 the full control effect; potency means the concentration at half of the fitted maximal effect; tags describe the fitted curve by direction and shape.

| SMILES | Potency | activity change, negative = growth inhibition |
| --- | --- | --- |
| COc1cccc(OC)c1C(=O)NC(=S)NCc1ccccc1 | inconclusive: 18.4 µM [inhibitor, single point] |  |
| COc1ccc(CCN(C)C(=S)Nc2cccc(C)c2)cc1OC |  | inactive: -26.2% |
| Clc1ccc(NC2=NCCCCC2)cc1 | inconclusive: 6.51 µM [inhibitor, full curve, poor fit] |  |
| COc1ccc(NS(=O)(=O)c2cc(NC(=O)/C=C/c3cccs3)ccc2N2CCOCC2)cc1 | inconclusive: 16.4 µM [inhibitor, single point] |  |
| Cc1ccccc1CSc1cn(CC(=O)N2CCCC2)c2ccccc12 | inconclusive: 16.4 µM [inhibitor, single point] |  |
| Cc1ccccc1-c1nnc(SCC(=O)NCc2ccc3c(c2)OCO3)n1C |  | inactive: -2.12% |
| COc1ccc(N(C)S(=O)(=O)c2ccc(C)cc2)c([N+](=O)[O-])c1 | inconclusive: 29.1 µM [inhibitor, single point] |  |
| O=C(NC(=S)NNC(=O)c1ccccc1O)c1ccc(F)cc1 | inconclusive: 29.1 µM [inhibitor, single point] |  |
| Cc1nc2ccccc2c2oc(C(=O)N3CCC(C)CC3)cc12 | inconclusive: 6.51 µM [inhibitor, single point] |  |
| Cc1ccc(C)c(N2CCN(C(c3ccc(F)cc3)c3nnc(-c4ccccc4)o3)CC2)c1 (stereo not given) | active: 14.6 µM |  |
| COc1ccc(N2CC(C(=O)N/N=C/c3cccs3)CC2=O)cc1 (stereo not given) |  | inactive: 6.82% |
| COc1ccc(N(CC(=O)NC2CCCCC2C)S(=O)(=O)c2c(C)nn(C)c2C)cc1 (stereo not given) |  | inactive: -28.8% |
| Cn1/c(=N/NC(=O)c2ccccc2F)sc2ccccc21 |  | inactive: 12.5% |
| CC(C)c1nc(SCC(=O)N2c3ccccc3CC2C)c2ccccc2n1 (stereo not given) | inconclusive: 18.4 µM [inhibitor, partial curve] |  |
| CCOC(=O)CC1(CCc2ccccc2)Oc2ccccc2N1S(=O)(=O)c1ccc(C)cc1 (stereo not given) | inconclusive: 25.9 µM [inhibitor, single point] |  |
| CCN(CC)CCC(=O)N1c2ccccc2Sc2ccc(Cl)cc21 | inconclusive: 23.7 µM [inhibitor, single point] and inconclusive: 29.1 µM [inhibitor, single point] |  |
| COc1cccc(C(=O)Nc2nnc(SCC(=O)Nc3ccc(NC(C)=O)cc3)s2)c1 |  | inactive: 2.53% |
| CCOC(=O)C1CCN(C(=O)c2n[nH]c(=O)c3ccccc23)CC1 |  | inactive: -0.0685% |
| N#Cc1c(N(CCO)CCO)nc(N)c2c(N)nc3c(c12)CC(=O)N3Cc1cccs1 | inconclusive: 29.1 µM [inhibitor, single point] |  |
| CSc1ccccc1C(=O)OCC(=O)N1CCN(C(C)=O)CC1 |  | inactive: 3.66% |
| Cc1ccc(N(C(=O)Cn2nnc3ccccc32)C(C(=O)NCc2ccccc2)c2ccccn2)cc1 (stereo not given) | inconclusive: 23.1 µM [inhibitor, single point] |  |
| O=C(Nc1cccc(N=Cc2cc(Cl)cc(Br)c2O)c1)c1ccco1 | inconclusive: 23.1 µM [inhibitor, single point] |  |
| Cc1cccc(CSc2nc3c(c(-c4cccs4)c2C#N)CN(C)CC3)c1 | inconclusive: 29.1 µM [inhibitor, single point] |  |

| SMILES | Potency | activity change, negative = growth inhibition |
| --- | --- | --- |
| COc1ccc2[nH]c(=O)c(CN(CC3CCCO3)S(=O)(=O)c3ccccc3)cc2c1 (stereo not given) | inconclusive: 29.1 µM [inhibitor, single point] |  |
| COc1ccc(CCN(C(=O)COc2ccccc2)c2nc(-c3ccccc3)cs2)cc1OC | inconclusive: 20.6 µM [inhibitor, partial curve] |  |
| COc1ccc(NC(=O)C2(C)Cc3c(-c4ccc(C(N)=O)cc4)ccnc3O2)cn1 (stereo not given) | inconclusive: 29.1 µM [inhibitor, single point] |  |
| COc1ccc(NC(=S)NC(NC(=O)CCl)C(Cl)(Cl)Cl)c([N+](=O)[O-])c1 (stereo not given) | inconclusive: 20.6 µM [inhibitor, single point] |  |
| O=C(NCCC1=CCCCC1)c1[nH]c(C(F)(F)F)nc1-c1ccccc1 | inconclusive: 25.9 µM [inhibitor, single point] |  |
| COc1ccc(OC)c(NC(=O)CC2C(=O)NCCN2C(=O)Nc2cccc(Cl)c2)c1 (stereo not given) |  | inactive: -14.1% |
| CC(=O)Nc1ccc(NC(=S)NC(=O)c2ccc(-c3ccccc3)cc2)cc1 |  | inactive: -6.02% |
| CN(C)C1=NC[C@H](Cc2ccccc2)N1CC1CCCCCC1 | active: 14.6 µM |  |
| CNc1ccc(/C=C/C(=O)c2ccc(C)cc2)cc1[N+](=O)[O-] | inconclusive: 29.1 µM [inhibitor, single point] |  |
| O=C(NCc1ccco1)c1c[nH]c2ccc(S(=O)(=O)N3CCOCC3)cc2c1=O |  | inactive: -42.2% |
| CC(C)(C)S(=O)N1Cc2cc(C(=O)NCC(F)(F)F)nc(-c3cccc(-c4cccc(F)c4)c3)c2[C@H]1CCO (stereo not given in full) | active: 20.6 µM |  |
| CN(C)c1ccc(/C=N/N=C/c2ccccc2O)cc1 | inconclusive: 16.4 µM [inhibitor, partial curve, poor fit] |  |
| CCOC(=O)c1cnc2c(ccc3ccccc32)c1Cl |  | inactive: -3.96% |
| CC(C)c1ccc(N=C2N=C(N)c3ccccc32)cc1 | inconclusive: 20.6 µM [inhibitor, single point] |  |
| O=C(NCc1cccnc1)c1ccc(Cn2cc(C(F)(F)F)ccc2=O)cc1 |  | inactive: -11.3% |
| CN(C)[C@@H]1CCC[C@H]1OC(=O)C(c1ccccc1)c1ccccc1 | inconclusive: 32.6 µM [inhibitor, single point] |  |
| CN(NS(=O)(=O)c1ccc(Cl)cc1)c1ncc(C(F)(F)F)cc1Cl | inconclusive: 23.1 µM [inhibitor, single point] |  |
| COc1ccc(NC(=O)CSc2nnc3c(C)cc4ccccc4n23)cc1 |  | inactive: 8.37% |
| CCn1c(=S)sc2c(=O)n(-c3ccccc3)c(SCC(=O)NCc3ccco3)nc21 | inconclusive: 20 µM [inhibitor, partial curve] |  |
| O=C(CCN1C(=O)C2CC=CCC2C1=O)Nc1ccc(S(=O)(=O)N2CCCCC2)cc1 (stereo not given) |  | inactive: -28.3% |
| Clc1ccccc1-c1nccc(NCCN2CCOCC2)n1 |  | inactive: 15.9% |
| O=C(COC(=O)COc1ccccc1)Nc1ncc(Cl)cc1Cl |  | inactive: 4.85% |
